Laboratory results from the supplement of paper PMC11417369.
Some of the results follow.

tested on: PF3D7_0420300 AP2 domain 1 (GST-tagged); experiment: gcPBM binding intensity (ln(normalized median fluorescence intensity)); higher = stronger DNA binding
In short: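 After 1 h on an Agilent 4 × 180k array of primer-extended double-stranded 36-bp intergenic genomic probes and negative controls, bound GST-tagged P. falciparum DNA-binding domains were detected with Alexa488 anti-GST antibody and scanned at 488 nm. The domains had been expressed in E. coli, and binding took place in 1× PBS with 1% milk, 0.2 mg/ml BSA, 0.5% salmon testes DNA and 0.03% Triton X-100. Binding intensity is the highest Masliner-normalised natural-log median intensity across replicate spots of either probe orientation.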

Row | Sequence | gcPBM binding intensity (ln)
1 | AATATATACCAACATAAATATATATATATATATATA [TGCATGCA_negctrl_site334] | 9.36
2 | AAGTGTATATAAAAATGTACATATTTCGATTTAAAT [XGTACX_site4161] | 9.32
3 | ATATATATATATATATGTACATAATTAATAATTAGA [XGTACX_site5672] | 9.27
4 | AGTTCGAATATATAAAGTACATAATTATATATTTGC [XGTACX_site2604] | 9.21
5 | TCTATTAACTGATGTGCATGTTATAACCTAGAAGTA [TGCATGCA_site359] | 9.19
6 | TAATATCATTTAGACACACACTCTTACAATATGTAA [CACACA_site5434] | 9.43
7 | TTACACATATTATATATATATAAAAAAAAAAAATAT [CACACA_negctrl_site1684] | 9.35
8 | ACCAATAATATACATACACACATAAAGGTTTATATA [CACACA_site315] | 9.66
9 | AAAAATCGATACAAGCGTACAAAATAAAATAAAAAT [XGTACX_site5546] | 9.43
10 | TATATATATATATGTATATATGTATATCTATATTTA [CACACA_negctrl_site131] | 9.01
11 | TCTTATCCTACTTTTATTTTTACTTTTTTTTCTTAT [CACACA_negctrl_site111] | 9.69
12 | TAAATTGAGTATATTACACACATATAAATATATTAT [CACACA_site4027] | 9.4
13 | TGGATTCGTATATGTAGTACTATTTATATGTGATTT [XGTACX_site1581] | 9.48
14 | ACTACATAATATTTACGTACCTAAAAAATTCTTATA [XGTACX_site509] | 9.08
15 | TCTTGACTAAATATATGTACATATATTTTAATAATA [XGTACX_site701] | 9.13
16 | TAAGTGCTTTTCAACTGTACCTTCCATTTATTTATT [XGTACX_site8589] | 9.34
17 | GTATTCAAAAGTGAAACATGCAATAATATATATATA [TGCATGCA_site617] | 9.33
18 | TTCTTATTTTATATTTCACACATTTTTACTATACTT [CACACA_site5817] | 9.77
19 | AAAAAAAAAAAAAATACACACGTGAATGTATTGTTT [CACACA_site4856] | 9.36
20 | ATACGTATTTATTTCACACACGTTAAAAAAATAAAA [CACACA_site6027] | 9.12
21 | AGAATGAAATAATATACACACAAAGGAAAAATGTAA [CACACA_site3911] | 9.98
22 | AAGGAGCCTATGAACACACACATGTACCTATATTAA [CACACA_site7838] | 9.62

Row | Sequence | gcPBM binding intensity (ln)
23 | TCACATATTATCTTTACACACTATATATAAGTTTTA [CACACA_site2790] | 9.53
24 | TCATGTTTTACAAAAACACACAAATGAATATAAACC [CACACA_site1161] | 9.57
25 | TTAAGATAGCAAATATGTACACATTTGTAAAATAAA [XGTACX_site4837] | 9.25
26 | TGTACATAAATCTAATTATTATATGTGTATATATAT [CACACA_negctrl_site1582] | 9.16
27 | AGTACAGACATAGACACACACACACCCATAAAAAAA [CACACA_site1515] | 10.1
28 | CGTATGCAAGGAACCACACACACACCCATAAATGTA [CACACA_site749] | 9.91
29 | AAAAAATAGACATATACACACATATGTATTTATAAT [CACACA_site5225] | 9.66
30 | AATATAATAATAAAAACACACACGTTGATTGTATTA [CACACA_site2381] | 9.71
31 | TAAAAATTCAATTGCACACGCACATATTTTAATAAG [CACACA_site2014] | 9.21
32 | ATTTCATATAGTGTAGTGCAATTTTAAGCATCAAGG | 9.24
33 | CCTATAATAAATAATACACACATATTGTAAATATAT [CACACA_site7496] | 9.6
34 | ATGTCATTATATACATGTACGCATATCTGTTTATCC [XGTACX_site3947] | 9.38
35 | TTAAAAATAAAAAATACACACTCTAGTCCATGTAAC [CACACA_site3640] | 9.48
36 | TTTTTTTTTATAAGGTGTACGTAAAATGTGTAGGTC [XGTACX_site3585] | 9.27
37 | CACACTAAAAGACACACACACACACGCATATAAATA [CACACA_site7874] | 10.2
38 | AAATATATATATATATGTACACACACACATATAAAT [XGTACX_site847] | 10.1
39 | TTGTAGGAATTTATTTTGACTGATAATTAATACGTT [GTGCAC_negctrl_site46] | 9.13
40 | TAGTGTAAAAAATACGCATGTGTACAAATATAATAA [TGCATGCA_site498] | 9.47
41 | AATAATACGTTAAATGTTCTTACAAGTTGGTTTCAT [CACACA_negctrl_site1029] | 9.24
42 | TAAAGGTGTAAAACTGCATGCTGGAGAAAAGTAAAA [TGCATGCA_site591] | 9.36
43 | AAAAAAAAATTTGTATCACACACGTATTATAAAAAA [CACACA_site6] | 9.25
44 | ATTATATAATATAATGCATGTGTTAATGAAAAATCT [TGCATGCA_site426] | 9.24

Row | Sequence | gcPBM binding intensity (ln)
45 | AAAAAAAAAAAAAAGTGTACCTTATTATACTTTAAT [XGTACX_site8439] | 9.05
46 | ATAATTTTTATTTGTACACACATACAGATATATTAT [CACACA_site4701] | 9.55
47 | GATATGTACTAATACACACACATATATATATATATA [CACACA_site1022] | 9.81
48 | GATATAGATATTAATTGTACATATTATTTATTGTTA [XGTACX_site846] | 9.33
49 | TTCTAAAAAGGGTGTACACAAACGAATGGAAAATAA [CACACA_site5483] | 9.45
50 | TATATATATATAATATGTACATATATATATTCTTAA [XGTACX_site6154] | 9
51 | ATAATTCATGTTTAGTGTACAAAAAATTAAAGCAAC [XGTACX_site8891] | 9.48
52 | AAATAATTTATATGTAGTACATGTTGTAGATAATTT [XGTACX_site1031] | 9.31
53 | TGATTATATAAAAAAAAGAAAAAAAAAAAAAAAAAA [CACACA_negctrl_site819] | 8.77
54 | ATGCATCATTTATTTGCACACCTATTATATACTTTT [CACACA_site2097] | 9.59
55 | TTATGATAACTTTGCACACACTTAGGAAAAGTTATG [CACACA_site6836] | 9.39
56 | CAAAGCATTTTATCTACACACATATATAAATAAATA [CACACA_site7500] | 9.47
57 | ATCTTTATTTTTAGCGCACACATAAAATAATAATAA [CACACA_site3458] | 9.21
58 | TATTTTAACTTTTTTTCCTTTATTCATTTTTTTTTC [CACACA_negctrl_site971] | 9.37
59 | TTTTTTTTTTTATGTGCACACAAAAGATGCTTATAT [CACACA_site2347] | 9.3
60 | TGATGCAAGATATATACACACATATAAATATAAATA [CACACA_site7429] | 9.58
61 | TAAAGAGTCATGTGGTGTACCTGCTTCACCACATAT [XGTACX_site1288] | 9.03
62 | TATATATTCATAAAGTGTACATGTTTATATATATAT [XGTACX_site7585] | 9.2
63 | TTATTTTTAATATCGGTGCAACAAAAAGGAAAAGAT [GTGCAC_site9482] | 9.48
64 | TATGTATAGATATATACACACTTCTGTGATACGAAA [CACACA_site7003] | 9.26
65 | ATATGTACATATCTCATGCACTTAACAAAAAAAAAG [GTGCAC_site9898] | 8.95
66 | TAATTTGTTAAAGGTTCACATATGGTATATACTTCT [XGTACX_negctrl_site292] | 9.41

Row | Sequence | gcPBM binding intensity (ln)
67 | TAATAAGGTTACAACAAACACACAAAGGAATATACA [CACACA_site4089] | 9.91
68 | GATATGATTAACTTATGTTATTCTTGATGGTTTCTT [GTGCAC_negctrl_site411] | 9.49
69 | TATCACAAAATATACTGTACATACAGGCAGTAATAT [XGTACX_site2487] | 9.29
70 | TTATAAAACCATGTCATCAACATAGGCACAAAAATG [CACACA_negctrl_site1160] | 9.31
71 | AAGAATCACCAAATATGTACACACCTTAACATGTTT [XGTACX_site4272] | 9.54
72 | CCACTGTATGAATGCACACATTCATAGAATTGCTAT [CACACA_site2676] | 9.24
73 | CCATAGATATTTTATACACACATATAATATATTAAT [CACACA_site373] | 9.44
74 | GATGATTCAATTTATGCACACTAAAAATTAATTATA [CACACA_site4308] | 9.2
75 | ACCAAAAGGGGATGTAGTACAATATGATTAGAAGAA [XGTACX_site3773] | 9.33
76 | ATAATCTGACAAATGTGTACACATATATATATATAT [XGTACX_site2379] | 9.42
77 | AAATAATATATTCCTTGTACTTATTTCAATGAATTC [XGTACX_site7719] | 9.21
78 | AAAATACCCGGACACACACACATATATATATATATT [CACACA_site6137] | 9.96
79 | TAACTTCAAACAAAATATGGTAAAAGTGGTTGAAAA [CACACA_negctrl_site42] | 9.26
80 | ATACATATATAATTATGTACGTATATTTTATATAAC [XGTACX_site4292] | 9.33
81 | ATGAATAAAAAAGGTGGTACATATATATATATATAT [XGTACX_site7893] | 9.33
82 | TGTCTTGTAAATTATTGTACTATTTAAAGTATAAAA [XGTACX_site7863] | 8.87
83 | AAAATAATATAAATAATATAAGTGAGCATATATATA [TGCATGCA_negctrl_site527] | 9.39
84 | AATAAAATTTGCGATGCACACAGAATAGCTAATATG [CACACA_site8983] | 9.52
85 | TTATTTTACTTTTATGCAACTAAAAATATTGCTATA [XGTACX_negctrl_site277] | 9.18
86 | ATATTCAATTCATACACACACAATTTAAGAATGATA [CACACA_site3883] | 9.76
87 | CATATAGATTTGTTCACACACACACTAAAAAAAAAA [CACACA_site7212] | 9.92
88 | ACAAATGTGAGAAAGACACACATATAATAAAAAACA [CACACA_site1156] | 9.55
